Assay results as given in PubChem BioAssay AID686978 (National Center for Advancing Translational Sciences (NCATS), 2013).
Where “and” joins values, the source holds several entries; their conditions need not be identical. Equal entries are not always repeated. The whole screen tested about 420,000 compounds, of which about 64,000 (15%) were called active. The shares of active, inactive and inconclusive entries below differ from those in the screen. Calls come from the whole dose curve; as a rule, active = well fitted inhibition curve with a large enough effect; inconclusive = small, poorly fitted or top-dose-only effect; inactive = flat fitted curve, though single readings scatter. Where the call is inconclusive, the potency comes from a doubtful curve fit.
% is set by controls: 0 for no effect and ±100 for the full control effect; potency is the fitted concentration of half-maximal effect; tags give direction and shape of the fitted curve.

Experiment: qHTS for Inhibitors of human tyrosyl-DNA phosphodiesterase 1 (TDP1): qHTS in cells in absence of CPT; note: nearly all actives have a fitted effect of over 55% in size
Conditions: DT40 Tdp1-/- hTDP1 cells, no CPT, ATP luminescence, 48 h; activity change, negative = growth inhibition: at 46.2 µM (top of the series) unless noted
How it was run: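 Readout: luminescence from CellTiter-Glo after 30 min in the dark at RT. Cells: DT40 Tdp1-/- with stable hTDP1, 400/well. Exposure: compounds alone, ≥48 hr, 37 °C.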
With `N/C(=N\OC(=O)CC(c1ccccc1)c1ccccc1)c1cccnc1` the Potency was inconclusive: 20.6 µM [inhibitor, single point]. For `Cc1cc(C)c2c(c1)-c1cc(C)nn1C(c1ccc3c(c1)OCO3)N2` (stereo unspecified), the Potency was inconclusive: 25.9 µM [inhibitor, single point]. In the case of `COc1ccc(CNC(=O)Cn2c(=O)oc3cc(S(=O)(=O)N4CCCCCC4)ccc32)cc1`, the Potency is reported as active: 16.4 µM. With `COc1ccccc1CNC(=O)CCCCn1c(=O)c2ccccc2n(Cc2c(C)cc(C)cc2C)c1=O` the “activity change, negative = growth inhibition” value was inactive: -1.28%. In the case of `N#Cc1ccccc1NC(=O)CSc1n[nH]c(=O)n1C1CC1`, the “activity change, negative = growth inhibition” value is reported as inactive: -4.79%. In the case of `COc1cccc(-c2nn3c(-c4ccccn4)nnc3s2)c1`, the Potency is reported as inconclusive: 20.6 µM [inhibitor, partial curve]. With `CCCc1cc(C(=O)Nc2cccc3ccccc23)n(C)n1` the Potency was inconclusive: 29.1 µM [inhibitor, partial curve]. In the case of `O=C(c1cnc(Cl)c(Cl)c1)N1CCN(S(=O)(=O)c2ccc(F)cc2)CC1`, the “activity change, negative = growth inhibition” value is reported as inactive: -27.7%. With `COc1ccc2nc(C)cc(SCC(NC(C)=O)C(=O)OC(C)C)c2c1` (stereo unspecified) the Potency was inconclusive: 23.1 µM [inhibitor, single point]. For `N#C/C(=C/c1ccc(-c2cccc([N+](=O)[O-])c2)o1)C(=O)Nc1nc(-c2cccs2)cs1`, the Potency was inconclusive: 18.4 µM [inhibitor, partial curve]. For `CC(=O)c1c(C)[nH]c(C(=O)OCC(=O)N(CC(C)C)C2CCS(=O)(=O)C2)c1C` (stereo unspecified), the “activity change, negative = growth inhibition” value was inactive: -4.32%. With `Cc1c(C(=O)Nc2ccc(F)c(F)c2)oc2ccc(S(=O)(=O)N3CCCCC3)cc12` the Potency was inconclusive: 35.5 µM [inhibitor, single point] and inconclusive: 16.4 µM [inhibitor, single point]. With `CSCCCNC(=S)N1CCc2ccccc2C1` the “activity change, negative = growth inhibition” value was inactive: 11.4%. For `Cc1ccc(N(C)S(=O)(=O)c2cccc(C(=O)NC3CC(C)(C)NC(C)(C)C3)c2)cc1`, the “activity change, negative = growth inhibition” value was inactive: -22.8%. With `CN(Cc1ccc(OC(F)F)cc1)C(=O)/C=C/c1ccc(S(=O)(=O)N2CCOCC2)cc1` the Potency was inconclusive: 23.1 µM [inhibitor, single point]. In the case of `CC(C)CN1C(=O)c2ccc(C(=O)Nc3ccc(OCC(=O)O)cc3)cc2C1=O`, the “activity change, negative = growth inhibition” value is reported as inactive: -1.23%. In the case of `CCOc1ccc(C(=O)NCCCN2CCCC2=O)cc1`, the “activity change, negative = growth inhibition” value is reported as inactive: -1.06%. With `Cc1ccc2cc(CCNS(=O)(=O)c3ccc(Br)cc3)c(=O)[nH]c2c1C` the Potency was active: 23.1 µM. In the case of `CC(C)CCN1C(=O)c2ccc(C(=O)OCn3nnc4ccccc4c3=O)cc2C1=O`, the “activity change, negative = growth inhibition” value is reported as inactive: -23%. With `O=C(Nc1ccc(OCc2ccccc2)cc1)Nc1cccnc1` the Potency was inconclusive: 23.1 µM [inhibitor, single point]. For `CCCn1c(CNC(=O)c2ccccc2)nc2ccccc21`, the “activity change, negative = growth inhibition” value was inactive: -2.1%. With `Cc1cc(N2CCN(C)CC2)nc2ccc(NC(=O)Nc3ccccc3Br)cc12` the Potency was active: 14.6 µM. In the case of `Cc1c(C(=O)N(C)Cc2nc3ccccc3c(=O)[nH]2)oc2ccccc12`, the Potency is reported as active: 23.1 µM. With `CC(C)=CC(=O)OCC(=O)NC1CCCc2ccccc21` (stereo unspecified) the “activity change, negative = growth inhibition” value was inactive: -14.2%. With `CC1=C(C(N)=O)C(c2ccc(C(C)C)cc2)n2nc(SCc3ccccc3)nc2N1` (stereo unspecified) the “activity change, negative = growth inhibition” value was inactive: -6.45%. For `COc1ccc(OC)c(Nc2nc(NCc3ccco3)nc(N)c2[N+](=O)[O-])c1`, the Potency was inconclusive: 14.6 µM [inhibitor, partial curve]. In the case of `CCOC(=O)[C@]12CCCC=C1N(Cc1ccco1)C(=O)[C@H](CC(=O)NCc1cccc3ccccc13)C2`, the Potency is reported as inconclusive: 25.9 µM [inhibitor, single point]. With `Cc1ccc(N2CCCn3c2cc(C)c(C#N)c3=O)cc1Cl` the Potency was inconclusive: 8.2 µM [inhibitor, partial curve, poor fit]. For `COc1cc(/C=C2/CC/C(=C/c3ccc(O)c(OC)c3)C2=O)ccc1O`, the Potency was inconclusive: 25.9 µM [inhibitor, single point]. With `CCOC(=O)c1c(C)[nH]c(C(=O)COC(=O)CNC(=O)c2ccc(Cl)cc2)c1C` the Potency was inconclusive: 16.4 µM [inhibitor, single point]. For `O=C(NC(=S)NCc1ccccc1)c1cccc(Cl)c1`, the Potency was inconclusive: 29.1 µM [inhibitor, single point]. In the case of `CC(=C/c1ccco1)/C=N/NC(=O)CSc1nnc(SCc2ccc(C)cc2)s1`, the Potency is reported as inconclusive: 29.1 µM [inhibitor, single point]. With `CC(=O)N1CCC(C(=O)N2c3ccccc3N=C(c3ccc4c(c3)OCO4)C2C(=O)Nc2c(C)cccc2C)CC1` (stereo unspecified) the Potency was inconclusive: 23.1 µM [inhibitor, single point]. With `CC(=O)c1cccc(NC(=O)CN(c2ccc(C)cc2)S(=O)(=O)c2cccc3nonc23)c1` the Potency was inconclusive: 16.4 µM [inhibitor, partial curve]. In the case of `COc1ccc(C(=O)Nc2cc(OC)c(Cl)cc2OC)cc1`, the Potency is reported as inconclusive: 29.1 µM [inhibitor, single point]. For `COc1ccc(C(=O)N/N=C/c2ccc(OC)c(COc3ccc(F)cc3F)c2)cc1`, the Potency was active: 18.4 µM. For `CC(=O)c1cc(-c2ccccc2)n(CCC(=O)NC(C)(C)C)c1C`, the “activity change, negative = growth inhibition” value was inactive: -19.6%. For `Cc1cc(C)nc(NC2=NCCN2C(=S)Nc2ccc(C)c(C)c2)n1`, the activity change, negative = growth inhibition was inconclusive: -34.1% [inhibitor]. In the case of `CC1CN(C(=O)c2cc(F)c(F)cc2Cl)CC(C)O1` (stereo unspecified), the Potency is reported as inconclusive: 9.2 µM [inhibitor, partial curve]. For `COCCN1C=C(C(=O)OC)C(c2cc3c(cc2Br)OCO3)C(C(=O)OC)=C1`, the activity change, negative = growth inhibition was inconclusive: -32.9% [inhibitor]. With `CC(=O)Nc1ccc(S(=O)(=O)N2CCCC(C(=O)O)C2)cc1` (stereo unspecified) the “activity change, negative = growth inhibition” value was inactive: 0.28%. For `CC(=O)N1c2ccc(S(=O)(=O)N3CCCC(C(=O)Nc4cccc(F)c4)C3)cc2CC1C` (stereo unspecified), the Potency was active: 29.1 µM. With `COc1ccc(CN(C)CC(=O)NC(C)c2ccccc2)c(OC)c1` (stereo unspecified) the Potency was inconclusive: 23.1 µM [inhibitor, partial curve]. For `Cn1c(=O)c2c(nc(C(O)c3ccccc3)n2C)n(C)c1=O` (stereo unspecified), the “activity change, negative = growth inhibition” value was inactive: -5.48%. With `CCOc1ccccc1CNC(=O)Cn1ccc2cc(S(=O)(=O)N3CCC(C)CC3)ccc21` the Potency was active: 20.6 µM. In the case of `COc1ccc(-c2ccccc2NC(=O)C2CCCN(Cc3ccc(C)o3)C2)cc1` (stereo unspecified), the Potency is reported as inconclusive: 23.1 µM [inhibitor, single point].
